Where “and” joins values, the source holds several entries; their conditions need not be identical. Equal values may be shown once. In all, about 48,000 compounds went through this assay and about 1,200 (2.5%) were called active. Another 2% or so got no clear call; they are omitted.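 How the source made its calls: active means activation of at least 60% and not above a set upper limit (about 1 call in 100 departs from these limits); inconclusive means activation of 40% to 60%, or above that upper limit; inactive means activation under 40%.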 This is one part of the list.

In this assay the target is Probable G-protein coupled receptor 32 (Homo sapiens) (UniProt O75388). The assay can be described thus: qHTS for Agonists of Human Resolvin D1 Receptor DRV1. Further: 0% is about no effect. The note with it: CHO-K1 GPR32 beta-arrestin PathHunter luminescence, 90 min; at 76.9 µM; hits give high values; zero percent set by DMSO-only wells. The gist of the method: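 GPR32 activation in stably transfected CHO-K1 cells, detected as beta-arrestin recruitment by enzyme-fragment complementation. Compound exposure: 90 min, 37 °C.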
Chain of UniProt O75388 (O75388 whole entry, looked up, the tested form may be a part): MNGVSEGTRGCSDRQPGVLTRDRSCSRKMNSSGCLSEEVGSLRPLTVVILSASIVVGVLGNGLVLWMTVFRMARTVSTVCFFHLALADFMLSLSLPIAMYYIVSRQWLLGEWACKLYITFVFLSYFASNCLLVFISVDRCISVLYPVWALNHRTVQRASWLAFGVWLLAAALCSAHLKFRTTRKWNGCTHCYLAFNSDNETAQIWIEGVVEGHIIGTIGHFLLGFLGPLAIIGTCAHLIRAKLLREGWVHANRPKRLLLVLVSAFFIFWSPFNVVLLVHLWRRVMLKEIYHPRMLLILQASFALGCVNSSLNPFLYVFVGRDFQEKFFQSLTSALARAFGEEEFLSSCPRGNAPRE
`O=C(CCCn1c(=O)[nH]c2ccccc2c1=O)N1CCN(c2ccccc2)CC1`: the activation was inactive: -4.99%. `CCOC(=O)c1cc2c(=O)n3ccccc3nc2n(Cc2ccco2)c1=NC(=O)c1ccc(F)cc1`: the activation was inactive: -25.9%. Consider `O=C(CN1C(=O)COc2ccc(S(=O)(=O)N3CCOCC3)cc21)N1CCN(c2ccc(Cl)cc2)CC1`, for which the activation was inactive: -21%.

On to `O=S(=O)(NCCc1cn2ccsc2n1)c1ccc(Cl)cc1`, for which the activation was inactive: -8.16%. Turning to `CCCCCCc1cc2cc(-c3cn4c(n3)sc3cc(OC)ccc34)c(=O)oc2cc1O`, the activation was inactive: 11.5%. As to `COc1cc(OC)c(NC(=O)Cn2cnc3c(nc4n3CCCCC4)c2=O)cc1Cl`, the activation is inactive: 27.8%. Take `CCN(CCCNC(=O)Cn1ncc2c3ccccc3n(C)c2c1=O)c1cccc(C)c1`: the activation was inactive: 18.2%. With `Cc1ccccc1C(=O)n1nc(-c2cccnc2)nc1NCc1ccc(F)cc1`, the activation is inactive: -33.7%. Consider `O=C(Nc1cccc(Cl)c1)c1cc(S(=O)(=O)N2CCC3(CC2)OCCO3)ccc1F`, for which the activation is inactive: -24.3%. Turning to `CCOC(=O)c1ccccc1NC(=O)COc1cc(=O)n(CC)c2ccccc12`, the activation was inactive: -4.06%.

As to `Cc1cc(OCC(=O)Nc2nc3c(s2)CCCC3)cc(C)c1Cl`, the activation is inactive: -11.3%. Turning to `O=C(CCC1N=C2c3ccccc3N=C(SCc3ccc(Cl)cc3)N2C1=O)NC1CCCCC1` (configuration not stated), the activation is inactive: -18.1%.

Take `CCOc1ccccc1NC(=O)Cn1c(=O)n(Cc2ccccc2)c(=O)c2c3c(sc21)CN(C(C)=O)CC3`: the activation was inactive: -6.94%. In the case of `COc1ccc(Cl)cc1NC(=O)c1sc2nc3c(cc2c1N)CN(C)CC3`, the activation was inactive: 48.6%. With `Cc1cccc(C)c1NC(=O)Cn1c(=O)cc(C)c2c(C)nn(-c3cccc(Cl)c3C)c21` the figure was inactive: -9.37%; with `COc1ccc(NC(=O)CC(C)S(=O)(=O)c2ccc3c(c2)NC(=O)CO3)cc1OC` (configuration not stated), inactive: 0.952%; with `O=C(CN1CCN(C2CCCCC2)C(=O)C1=O)Nc1ccc(Cl)cc1`, inactive: 11.5%. On to `CCn1cc(C(=O)NCCc2ccccc2)c(=O)c2cc(S(=O)(=O)N3CCc4ccccc4C3)ccc21`, for which the activation was inactive: -12.9%. Turning to `O=S(=O)(NCCc1csc2nc(-c3ccc(Cl)cc3)nn12)c1ccc2c(c1)OCCO2`, the activation is inactive: 10.9%. Turning to `CCCN(CCC)CCCNC(=O)c1cn(C)c2ccc(S(=O)(=O)N3CCOCC3)cc2c1=O`, the activation was inactive: -6.68%. For the molecule `CCCn1c2ccccc2c2cnn(CC(=O)NCCCN(Cc3ccccc3)C(C)C)c(=O)c21`, the activation was inactive: -13.1%. On to `CC(C)c1ccc(NC(=O)CN2C(=O)COc3ccc(S(=O)(=O)N4CCOCC4)cc32)cc1`, for which the activation is inactive: 1.15%.

Turning to `CCC(C)NC(=O)CN1C(=O)c2cccnc2Oc2ccc(C)cc21` (configuration not stated), the activation is inactive: -19.8%. As to `COc1ccc(CCNc2nc(SCc3cccc(F)c3)nc3ccccc23)cc1OC`, the activation is inactive: -3.62%. In the case of `COC(=O)c1ccc2c(=O)n(CCCCCC(=O)NCc3ccc(OC)cc3)c(=O)[nH]c2c1`, the activation is inactive: -25%. With `COc1ccc(Nc2cc(C(=O)NCCCN(C)C3CCCCC3)c3ccccc3n2)c(OC)c1`, the activation was inactive: -17.7%.

`COc1ccc(-c2cc(C)no2)cc1S(=O)(=O)N1CCOc2ccc(Cl)cc21`: the activation is inactive: -18.5%. Consider `Cc1nn(-c2ccc(N3CCOCC3)nn2)c(C)c1CCC(=O)Nc1ccc(F)cc1F`, for which the activation is inactive: -8.41%. Consider `COc1ccc(NC(=O)C2CCCN(S(=O)(=O)c3c(C)[nH]c(=O)[nH]c3=O)C2)cc1Cl` (configuration not stated), for which the activation was inactive: 5.36%.

Regarding `O=C(CSc1nccn1Cc1ccc(Cl)cc1)Nc1ccc2c(c1)OCO2`, the activation was inactive: -13.7%. As for `Cc1ccc(C)c(NC(=O)c2ccc3c(c2)CCN3S(=O)(=O)c2ccccc2)c1`, the activation is inactive: -12%. As for `CCC(Sc1nc2ncccc2o1)C(=O)Nc1cccc(C)c1` (configuration not stated), the activation is inactive: -34%. Turning to `COc1ccc2oc(=O)c(-c3nc(-c4ccc(C)c(C)c4)cs3)cc2c1`, the activation was inactive: 15.7%. For the molecule `Cc1cc(C)cc(OCCSc2nc(-c3cccs3)nc3cc(=O)[nH]n23)c1`, the activation is inactive: 7.03%. In the case of `CCc1cc2c(cc3c(=O)n(CC(=O)NCCc4ccccc4)ncn32)s1`, the activation was inactive: 5.07%. Take `O=C(Nc1ccc(Cl)c(C(F)(F)F)c1)C(Cc1ccccc1)NS(=O)(=O)c1cccc2nsnc12` (configuration not stated): the activation is inactive: 4%. As for `CCc1ccc(C2c3c(-c4ccccc4)n[nH]c3C(=O)N2c2ccc(C(=O)O)cc2)cc1` (configuration not stated), the activation is inactive: 28%. `C[C@H]1NCc2cc(-c3ccc4c(=O)c(C(=O)O)cn(C5CC5)c4c3OC(F)F)ccc21`: the activation is inactive: -6.4%. Turning to `C[N+]1(CC2COC(c3ccccc3)(c3ccccc3)O2)CCCCC1` (configuration not stated), the activation is inactive: -16.3%. In the case of `O=C(CN1N=C(c2ccccc2)CCC1=O)NCc1ccc(F)cc1Cl`, the activation was inactive: -14.2%.

Take `COc1cccc(-n2cc(C(=O)NCc3ccc(C)cc3)c3ccccc3c2=O)c1`: the activation is inactive: -27.8%.

For `COc1ccc(CNC(=O)Cn2ncc3c(=O)oc4ccc(C)cc4c32)c(OC)c1`, the activation was inactive: 2.61%. For the molecule `Cc1cc(=O)n2[nH]c(NC(=O)c3cccc(Cl)c3)nc2n1`, the activation was inactive: 38.3%. In the case of `COc1ccccc1CCNC(=O)CCCn1c(=O)c2cccn2c2cccnc21`, the activation is inactive: -18.2%. With `Cc1c(C(=O)NCc2ccc(OC(C)C)cc2)sc2ncnc(N(C)C3CCCCC3)c12`, the activation was inactive: -20.2%. For `CC1=Nc2cc(C(=O)N3CCCCC3)ccc2Sc2ccc(C)cc21`, the activation is inactive: 11.5%. `CC#C[C@]1(O)CC[C@H]2[C@@H]3CCC4=CC(=O)CCC4=C3[C@@H](c3ccc(N(C)C)cc3)C[C@@]21C`: the activation is inactive: -13% and inactive: -47%. As for `CCCC(=O)Nc1nnc(SCc2cc(=O)n3cccc(C)c3n2)s1`, the activation was inactive: 1.18%.

As for `COc1ccc(-c2nc(CN3CCC(C(=O)NCc4ccc(F)cc4)CC3)c(C)o2)cc1OC`, the activation was inactive: -6.74%.

With `COc1ccc(CCC(=O)NC2CC(=O)N(c3ccccc3)C2)cc1` (configuration not stated), the activation was inactive: -12%. For `CCOC(=O)c1c(NC(=O)/C=C/c2ccc(Cl)cc2)sc2c1CCC(C)C2` (configuration not stated), the activation was active: 79.4%. Take `CCOC(=O)c1c(C)oc2nc(C)nc(N3CCN(c4cccc(C(F)(F)F)c4)CC3)c12`: the activation was inactive: -16%.

For the origin of these results see PubChem BioAssay AID1346428 (National Center for Advancing Translational Sciences (NCATS), 2018).
